# Assay results as given in PubChem BioAssay AID1508642 (National Center for Advancing Translational Sciences (NCATS), 2021).
# The whole screen tested about 43,000 compounds, of which about 200 (0.47%) were called active. Another 12% or so got no clear call; they are omitted. The call rests on the fitted dose curve; in most records, active means well fitted cell-killing curve with a large enough effect; inconclusive means small, poorly fitted or top-dose-only effect, or effect the other way; inactive means flat fitted curve, though single readings scatter. The list shows a part of the results.
# Test: Cell viability qHTS assay in S16 Pmp22-F2sN cells; further: nearly all actives have a fitted effect of over 65% in size
# Conditions: S16 Pmp22-F2sN Schwann cells (luciferase reporters placed in the Pmp22 gene) viability, CellTiter-Glo, 24 h; series mostly up to 57.5 µM; activity change, negative = cytotoxicity: at the top concentration
# How it was run: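 Rat S16 Schwann reporter line, 24 h treatment with library compounds delivered at 23 nL per well. Cell viability by CellTiter-Glo luminescence.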
# On the % scale 0 is the no-effect control and ±100 the full control effect.
row,Compound,"activity change, negative = cytotoxicity"
1,CCOC(=O)c1sc2ccccc2c1S(=O)(=O)N1CCN(c2cc(C)ccc2C)CC1,inactive: 1.19%
2,CCOC(=O)c1c(S(=O)(=O)N2CCC(C(=O)Nc3ccc(C)c(Cl)c3)CC2)c(C)n(C)c1C,inactive: 3.1%
3,O=C(c1cccc([N+](=O)[O-])c1)N1CCN(c2ccc(Nc3ccccc3)nn2)CC1,inactive: -4.01%
4,COc1nnc(-c2ccc(N3CCCCC3)c(NC(=O)c3ccc(C)cc3)c2)c2ccccc12,inactive: 14.7%
5,O=C(c1ccc2c(c1)N(Cc1cccc(Cl)c1)C(=O)c1ccccc1S2=O)N1CCC(Cc2ccccc2)CC1 (centres undefined),inactive: -19.9%
6,CCOc1cccc(CNCCCSc2nnnn2C)c1,inactive: 5.09%
7,O=S(=O)(c1ccc(-c2cnc(C3CC3)o2)cc1)N1CCN(c2ccc(F)cc2)CC1,inactive: -6.31%
8,CCn1nc(C)c2c(-c3ccccc3)cc(=O)n(C(C)C(=O)NCCc3ccc(Cl)cc3)c21 (centres undefined),inactive: 0.228%
9,CCOc1ccc(NC(=O)CCCn2c(C)c3cnn(-c4ccccc4)c(=O)c3c2C)cc1,inactive: -0.351%
10,COc1ccc(CCN2C(=O)N(c3cccc(OC)c3)C(=O)C2CC(=O)Nc2ccccc2)cc1 (centres undefined),inactive: -15.1%
11,Cc1ccc(C)c(Cn2c(=O)n(-c3ccccc3)c(=O)c3c4c(sc32)CCCC4)c1,inactive: 10.1%
12,Cc1cc2oc(=O)c(CC(=O)O)c(C)c2c2occ(-c3ccccc3)c12,inactive: -20%
13,CCOC(=O)c1c(C)[nH]c(CCC(=O)NCc2cc(OC)c(OC)c(OC)c2)c1C,inactive: 13.3%
14,Oc1c(C(c2ccccc2)N2CCCC2)sc2nc(-c3ccco3)nn12 (centres undefined),inactive: -0.886%
15,CCOC(=O)Cc1ccc(NC(=O)NC(C)c2c(-n3cccc3)sc(C)c2C)cc1 (centres undefined),inactive: 9.03%
16,CCNC(=O)CC1C(=O)N(c2ccc(C)cc2)C(=O)N1CCOC (centres undefined),inactive: 14.1%
17,COc1ccc(CNC(=O)CN2C(=O)CCn3nc(-c4cn(C)c5ccccc45)cc32)cc1,inactive: 1.78%
18,Cc1ccc(-c2noc(-c3nnn(CC(=O)Nc4ccc(C)c(Cl)c4)c3N)n2)cc1,inactive: 5.97%
19,CC(C)Oc1ccc(C(=O)NCC(c2ccc(N(C)C)cc2)N2CCc3ccccc32)cc1 (centres undefined),inactive: 6.82%
20,CCOc1ccc(N(CC(=O)Nc2ccc(OC)cc2)S(=O)(=O)c2ccc(Cl)cc2)cc1,inactive: 12.3%
21,CCOC(=O)c1ccccc1NC(=O)N1CCC(CN2CCOCC2)CC1,inactive: -4.24%
22,CCN1CCN(C(c2ccccc2Cl)c2sc3nc(-c4ccco4)nn3c2O)CC1 (centres undefined),inactive: 21.8%
23,CCOc1ccc(NC(=O)Cn2nc3c(cc2=O)CC(C)CC3)cc1 (centres undefined),inactive: 8.35%
24,Cc1ccc2c(c1)cc1c(=O)n(Cc3ccccc3Cl)nc(C)n12,inactive: 7.23%

row,Compound,"activity change, negative = cytotoxicity"
1,Cc1ccc2c(C)c(C(=O)N(Cc3ccc(N(C)C)cc3)Cc3ccco3)oc2c1C,inactive: 18.7%
2,O=C(CCSCCc1ccccn1)Nc1ccc(Cl)cc1,inactive: 3.32%
3,CCn1c(=O)c2sccc2n2c(CCC(=O)Nc3ccc(F)cc3)nnc12,inactive: 12.7%
4,COc1ccc2c(c1)c(N1CCCC1=O)c(C(=O)Nc1cc(C)c(Cl)cc1OC)n2C,inactive: 28.9%
5,CCN(c1ccccc1)S(=O)(=O)c1nnc(NC(=O)C2CCCCC2)s1,inactive: 11%
6,O=C(NCCc1csc(-c2ccc(C(F)(F)F)cc2)n1)C(=O)Nc1ccc(F)c(Cl)c1,inactive: 1.66%
7,CCOc1ccccc1NS(=O)(=O)c1ccc(N2CCCCS2(=O)=O)cc1,inactive: -1.52%
8,CCOC(=O)c1c(N)n(-c2ccc(CC)cc2)c2nc3ccccc3nc12,inactive: 2.38%
9,CC(=O)Nc1ccc(C)cc1-c1nc2ccccc2n(CC(=O)c2ccc(C)c(C)c2)c1=O,inactive: 11.2%
10,CN1CCN(c2nc3c(S(=O)(=O)c4ccc(Cl)cc4)nnn3c3ccsc23)CC1,inactive: 4.81%
11,COc1ccc(S(=O)(=O)n2nc(C)c(S(=O)(=O)N3CCCCCC3)c2C)cc1C,inactive: -0.539%
12,CC(=O)N1CCOc2cc(S(=O)(=O)NCc3ccccc3Cl)c(Cl)cc21,inactive: 1.19%
13,COc1ccc(NC(=O)CSc2nc3ccccc3nc2N2CCCCC2)cc1,inactive: 19.9%
14,CCc1ccc(NC(=O)Cn2c(=O)n(-c3ccccc3C)c(=O)c3c2c2cc(OC)ccc2n3C)cc1,inactive: 25.7%
15,Cc1ccc(C)c(NC(=O)Cn2c(SCC(=O)NCc3ccccc3)nc3ccccc32)c1,inactive: 4.3%
16,Cc1ccc(N(CC(=O)N2CCN(c3ccccc3)CC2)S(=O)(=O)c2c(C)noc2C)cc1,inactive: 2.79%
17,Cc1nc(-c2ccc(F)cc2)sc1CCNC(=O)c1cccs1,inactive: 3.94%
18,Cc1c2cnn(CC(=O)NCc3ccc(Cl)cc3)c(=O)c2c(C)n1Cc1ccc(F)cc1,inactive: 2.57%
19,O=C(Cc1ccc(F)cc1)NCCc1csc2nc(-c3ccccc3F)nn12,inactive: -8.7%
20,COc1ccc(CCNS(=O)(=O)c2c(C)nc3sccn3c2=O)cc1OC,inactive: 6.15%
21,COc1ccc(C(CNC(=O)c2oc3cc(C)c(C)cc3c2C)N2CCCCC2)cc1 (centres undefined),inactive: 16.3%
22,CCn1cc(C(=O)N2CCN(c3ccccc3)CC2)c(=O)c2cc(S(=O)(=O)N(C)C)ccc21,inactive: -4.52%
23,Cc1cc(C)cc(NC(=O)CSc2ccc(-c3cccs3)nn2)c1,inactive: -10.9%
24,Cc1ccccc1Nc1nn2c(=O)c3ccc(C(=O)NCc4cccs4)cc3nc2s1,inactive: -27.1%

row,Compound,"activity change, negative = cytotoxicity"
1,Cc1cc(NS(=O)(=O)c2ccc(NC(=O)COc3ccccc3Br)cc2)no1,inactive: 10.8%
2,O=C(CCc1ccccc1)NC1CC(=O)N(c2cccc(F)c2)C1 (centres undefined),inactive: -1.64%
3,CCC(=O)N1CCc2cc(S(=O)(=O)NC(CC(C)C)C(=O)Nc3cccc(C)c3C)ccc21 (centres undefined),inactive: -7.94%
4,CN(C)c1ccc(CNC(=O)CN2C(=O)C3CCCCN3c3ccc(C(=O)N4CCCC4)cc32)cc1 (centres undefined),inactive: 10.9%
5,COc1ccc(CCNc2ncnc3c2cnn3-c2ccc(C)c(Cl)c2)cc1,inactive: 12.9%
6,Cc1ccc(NS(=O)(=O)c2ccc3oc(=O)c4ncn(C)c4c3c2)cc1C,inactive: 0.0626%
7,O=C(CCC1N=C2c3ccccc3N=C(SCc3ccc(Cl)cc3)N2C1=O)NCc1cccs1 (centres undefined),inactive: 12%
8,CCC(C)NC(=O)c1cc2n(n1)CCCN(Cc1ccc(C)cc1)C2=O (centres undefined),inactive: -17.5%
9,Cc1ccc(N2CCN(C(=O)c3cccn4c(=O)c5ccc(Cl)cc5nc34)CC2C)cc1 (centres undefined),inactive: 6.68%
10,COc1cccc(N2CCN(C(=O)c3cnn(-c4ccccc4Cl)c3C3CCN(C(=O)OC(C)(C)C)CC3)CC2)c1,inactive: -10.7%
11,CCCCc1ccc(NS(=O)(=O)c2cc3c4c(c2)CC(=O)N4CCC3)cc1,inactive: -4.8%
12,CCOCCCNC(=O)c1ccc2c(=O)n(CCc3ccccc3)c(=O)[nH]c2c1,inactive: 0.215%
13,CCc1ccc2oc(-c3cc(NC(=O)c4cc(OC)c(OC)c(OC)c4)ccc3O)nc2c1,inactive: -8.88%
14,CC(=O)c1ccc(NC(=O)CSc2nc(=O)n(Cc3ccccn3)c3c2CCC3)cc1,inactive: 4.84%
15,COc1cccc(NC(=O)C2CCC(CNS(=O)(=O)c3csc(C(N)=O)c3)CC2)c1 (centres undefined),inactive: 2.02%
16,COc1cc(NC(=O)C2CCN(c3cnccn3)CC2)cc(OC)c1,inactive: -6.4%
17,O=C(Cn1c(=O)n(Cc2ccco2)c(=O)c2oc3ccccc3c21)Nc1ccccc1,inactive: -4%
18,COc1cccc(-c2cn3c(n2)sc2cc(C(=O)NC4CCCCC4)ccc23)c1,inactive: 7.37%
19,CCc1ccccc1Nc1nn2c(=O)c3ccc(C(=O)NC(C)C)cc3nc2s1,inactive: 14.9%
20,CCN(CCCNC(=O)c1cc2c(=O)n(C)c3ccccc3c2s1)c1ccccc1,inactive: -19.4%
21,COc1ccccc1NC(=O)CN1C(=O)C(c2ccc(F)cc2)=NC12CCCCC2,inactive: 17.1%
22,COc1ccccc1N1CCN(C(=O)C2CCN(S(=O)(=O)c3cn(C)cn3)CC2)CC1,inactive: 2.24%
23,CN1CCN(CCNC(=O)c2cnn(-c3ccc(Cl)cc3)c2C2CCN(C(=O)OC(C)(C)C)CC2)CC1,inactive: 3.64%
24,CCN(C(=O)C1CCN(S(=O)(=O)c2c(C)noc2/C=C/c2ccc(C)cc2)CC1)c1cccc(C)c1,inactive: 4.9%

row,Compound,"activity change, negative = cytotoxicity"
1,CCOc1ccc(-c2nonc2NC(=O)c2oc3ccc(CC)cc3c2C)cc1,inactive: -13.3%
2,COc1ccc(Cl)cc1NC(=O)c1cnc2sc(N3CCOCC3)nn2c1=O,inactive: 12.3%
3,Cc1ccc(CNC(=O)c2cnc3c(-c4ccc(F)cc4)c(C)nn3c2C)o1,inactive: 1.82%
4,O=C(CCCCCn1c(=O)c2sccc2n(Cc2ccccc2Cl)c1=O)NCc1ccc2c(c1)OCO2,inactive: -4.62%
5,Cc1ccc(S(=O)(=O)Nc2ccc3nc(-c4cccc(Cl)c4)oc3c2)cc1,inactive: 5.71%
6,COc1ccc(CCNC(=O)C(C)n2nc(C)c3sc4ccccc4c3c2=O)c(OC)c1 (centres undefined),inactive: -0.307%
7,CCC(=O)N1CCc2cc(S(=O)(=O)NC(Cc3ccccc3)C(=O)O)ccc21 (centres undefined),inactive: 12%
8,COc1ccc(NC(=O)CSc2nc3ccccc3c(=O)n2CCC(=O)NC2CCCCC2)c(OC)c1,inactive: 4.5%
9,Fc1ccc(Nc2nc3ccccc3n3cnnc23)c(F)c1,inactive: 19.5%
10,Cc1nc2nc(CNC(=O)c3cccc(F)c3)nn2c(C)c1CCC(=O)Nc1cccc(Cl)c1,inactive: -7.47%
11,Cc1nn(C(C)C(=O)Nc2ccccc2C(F)(F)F)c(=O)c2c1sc1ccccc12 (centres undefined),inactive: -0.905%
12,CC(C)(C)c1ccc(C(=O)Nc2c(C(=O)c3ccc(F)cc3)oc3ccccc23)cc1,inactive: 21.1%
13,Cc1ccc(N(CC(C)C)S(=O)(=O)c2nnc(NC(=O)C(C)C)s2)cc1,inactive: 4.28%
14,COc1ccccc1CNC(=O)COCc1cc(-c2cccs2)on1,inactive: 4.25%
15,COc1ccc(NC(=O)c2nc(-c3ccc(C)cc3)n3c2CCCCC3)cc1,inactive: -6.5%
16,COc1cccc(C(=O)N(Cc2nc(-c3ccc(Cl)cc3)no2)C(C)C)c1OC,inactive: -15.1%
17,COc1ccc(Oc2nc3c(c(=O)n(Cc4ccc(Br)cc4)c(=O)n3C)n2C)cc1,inactive: -2.73%
18,O=C(c1ccc(F)cc1)n1nc(-c2cccnc2)nc1NCc1ccccc1,inactive: -3.4%
19,COc1ccc(-n2ccnc(NCCc3ccccc3)c2=O)cc1OC,inactive: -23.6%
20,CC(C)c1ccc(N(CC(=O)O)S(=O)(=O)c2ccc3[nH]c(=O)c(=O)[nH]c3c2)cc1,inactive: 3.84%
21,Cc1ccc2oc(C(=O)Nc3ccc(S(=O)(=O)Nc4nccc(C)n4)cc3)cc(=O)c2c1,inactive: -4.14%
22,COc1ccc(Br)cc1CNC(=O)CN1C(=O)c2cccnc2Oc2ccc(C)cc21,inactive: 3%
